About 540 (0.36%) of roughly 150,000 compounds showed an effect of 50% or more. This is one part of the list.
system: Plasmodium falciparum; assay: Primary screen in NF54 nanoGlo assay, in single point, at 2uM, 72h; a lower Z score goes with more inhibition; format: functional, Erythrocyte; conditions: timepoint 72 hour

Compound | % Inhibition [%] | Z score
C[C@H](NC(=O)c1ccc[nH]1)c1nc(-c2ccncc2)cs1 | -3 | 0.46
CC(C)(C)OC(=O)N1CC2CCCCN2CC1CN (stereo unspecified) | -3 | 0.54
Cc1cnccc1NCCNC1CCN(c2ccc3c(c2)CCC3)CC1 | 85 | -13.14
CC(C)(C)NC(=O)N1CCC(CNC(=O)CCc2ccccc2Br)CC1 | -9 | 1.47
O=C1NCCN(Cc2c(F)cccc2Br)[C@H]1Cc1nc2ccccc2o1 | 26 | -2.89
Nc1ccc(CCNS(=O)(=O)c2cnc3n2CCC3)cc1 | -35 | 4.06
O=C(NCC(=O)N1CCCC1)NCC1(c2ccc(Cl)cc2Cl)CCOCC1 | -2 | 0.26
CC(NCc1noc2c1CCCC2)C1CC12CC2 (stereo unspecified) | -10 | 1.27
CCNC(=O)N1CCC(c2nnc(C(=O)Nc3ccccc3)s2)CC1 | 8 | -0.76
COc1ccc(CC(=O)N(Cc2ccco2)[C@H]2CCS(=O)(=O)C2)cc1OC | -7 | 0.88
COCCN1C[C@@H](Cc2cc(N(C)C)ncn2)CC1=O | -17 | 1.69
CC(C)OCC1CCN(C(=O)c2ccnc(C(C)C)n2)CC1 | -4 | 0.39
c1ccc(-c2cc(-c3nc([C@H]4CCOC4)no3)n[nH]2)cc1 | -14 | 1.42
Cc1cc(O)cc(=O)n1CCCC(=O)N1CCC[C@H]1c1nc2ccccc2n1C(C)C | -3 | 0.61
CCc1nccn1CCC(=O)N[C@H]1CCOC[C@@H]1Oc1ccc(CO)cc1 | -9 | 0.83
C[C@H](O)C(=O)N1CCC(c2nccn2CC2CCC2)CC1 | 0 | 0.06
c1ccc(-n2cc(Cn3nccc3N[C@H]3CCCOC3)cn2)cc1 | -2 | 0.21
N#CC1(NS(=O)(=O)c2c(Cl)cccc2Br)CC1 | -16 | 1.4
Cc1cc(-c2nc3ccccc3n2C)c(=O)n(CCC(N)=O)n1 | -9 | 0.77
O=C(Cn1c(-c2cccs2)cc2cc(F)ccc21)NC1CCCCCC1 | -3 | 0.36
Cn1nncc1C1(O)CN(c2nc3ccccc3n3cncc23)C1 | -10 | 1.56
C[C@H]1CN(CCC(=O)NCc2cc(-c3ccccc3)[nH]n2)Cc2cc(Cl)ccc2O1 | -8 | 0.99

Compound | % Inhibition [%] | Z score
Cc1nccc(C(=O)NCC2(c3ccccc3)CC2)n1 | -9 | 0.92
O=C(Nc1ccccc1F)OCC(F)(F)F | -3 | 0.57
Cc1cccc(CN2CC[C@@H]3CN(C(=O)c4onc5c4CCCC5)C[C@@H]32)n1 | 3 | -0.56
CN(CCC1(O)CCCC1)CCS(C)(=O)=O | -6 | 0.94
CCN=C(NC)NC[C@@H](c1ccccc1OC)N1CCCC1 | -8 | 0.77
CN(C(=O)c1cccc(-c2nccs2)c1)[C@H]1COC[C@@H]1O | -14 | 1.85
O=C(NCC(=O)N1CCC(n2c(=O)[nH]c3ncccc3c2=O)CC1)OCc1ccccc1 | -8 | 1.64
CC1CC(C)CN(S(=O)(=O)c2ccc(C(=O)N3CCCN(C)c4nc5ccccc5nc43)cc2)C1 (stereo unspecified) | -9 | 1.16
CC(C)c1ccc(N2C[C@@H](CN3CCOCC3)C[C@H](CO)C2)nn1 | -7 | 0.77
COc1cc(CN2CCc3nc(N4CCN(C)CC4)nc(N4CCOCC4)c3C2)cc(OC)c1 | -16 | 2.17
CCn1nccc1NC(=O)c1cc(F)c[nH]1 | -7 | 0.82
CS(=O)(=O)c1ccc(Cl)c(S(=O)(=O)Nc2cnoc2-c2ccccc2)c1 | -4 | 0.63
Cc1cc(C#N)ccc1C(=O)NCCOC1CCCCC1 | -3 | 0.51
Cc1ccc(Nc2nc(N)nc(-c3ccc(C4(O)CCNCC4)cc3)n2)cc1 | -3 | 0.52
CCCc1nnsc1C(=O)N1CCc2nc(NC(=O)OCC)sc2C1 | -5 | 1.08
O=C(c1ccc2ncsc2c1)N1CCC(F)(F)C1 | -14 | 1.73
c1n[nH]cc1CCCN1CCc2[nH]ncc2C1 | 4 | -0.73
O=C1C[C@H](COCc2ccccc2)c2c(-c3cccs3)n[nH]c2N1 | -3 | 0.4
O=C(CCC(=O)N1CCN(c2cccc(Cl)c2)CC1)Nc1ccc(OCc2ccccc2)cc1 | 5 | -0.73
O=S(=O)(NCc1cccc2c1OCO2)c1ccc(CC(F)(F)F)cc1 | 4 | -0.63
Cc1ccc(NS(=O)(=O)c2cc(CN3C(=O)C4CCCCC4C3=O)ccc2C)cc1C (stereo unspecified) | -10 | 1.35

From ChEMBL document CHEMBL4888484, “Replenishing the malaria drug discovery pipeline: Screening and hit evaluation of the MMV Hit Generation Library 1 (HGL1) against asexual blood stage Plasmodium falciparum ,using a nano luciferase reporter read-out” (2022)
